Source: paper PMC6919601, “Identification of Plasmodium dipeptidyl aminopeptidase allosteric inhibitors by high throughput screening” (PLoS ONE, 2019)
The campaign covered roughly 110,000 compounds. About 230 (0.21%) showed an effect of 50% or more. The list shows a part of the results.
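Note: 30 min substrate incubation versus DMSO and 10 µM JCP410 controls.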

The molecules below were run against DPAP1 (Plasmodium falciparum, UniProt Q8IIJ9) (assay: primary screen, percent inhibition; read by cleavage of a fluorogenic dipeptide substrate; higher = more effect of the substance).
Chain of DPAP1 (Q8IIJ9 whole entry, looked up): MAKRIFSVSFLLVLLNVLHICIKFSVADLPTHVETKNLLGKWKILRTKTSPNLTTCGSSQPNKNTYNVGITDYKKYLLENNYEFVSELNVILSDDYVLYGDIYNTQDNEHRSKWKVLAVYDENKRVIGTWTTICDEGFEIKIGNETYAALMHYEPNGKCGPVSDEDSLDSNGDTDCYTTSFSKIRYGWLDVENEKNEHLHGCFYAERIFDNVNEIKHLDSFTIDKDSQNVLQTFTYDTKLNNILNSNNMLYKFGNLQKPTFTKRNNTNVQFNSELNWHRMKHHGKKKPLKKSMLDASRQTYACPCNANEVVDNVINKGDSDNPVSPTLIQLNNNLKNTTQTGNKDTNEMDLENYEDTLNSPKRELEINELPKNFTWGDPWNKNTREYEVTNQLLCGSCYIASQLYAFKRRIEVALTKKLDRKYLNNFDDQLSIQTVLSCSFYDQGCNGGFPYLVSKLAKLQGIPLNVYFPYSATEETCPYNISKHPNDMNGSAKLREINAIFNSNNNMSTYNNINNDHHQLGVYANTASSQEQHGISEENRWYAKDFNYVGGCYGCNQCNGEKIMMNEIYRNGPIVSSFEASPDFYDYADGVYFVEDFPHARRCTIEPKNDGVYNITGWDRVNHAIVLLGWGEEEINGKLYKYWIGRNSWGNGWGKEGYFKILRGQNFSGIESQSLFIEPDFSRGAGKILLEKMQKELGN
Parameters: species or system P. falciparum D10 trophozoite lysates; single well
In the case of `O=C1NC2(CCCCC2)N=C2C3CCCC12CN(C1CCCCC1)C3` (stereo not drawn), the “% Inhibition @ 10 uM” value is reported as 0.0289%.
With `COc1cc(CNCC2CCCO2)cc(Cl)c1OCc1ccccc1` (stereo not drawn) the “% Inhibition @ 10 uM” value was -3.45%.
`COc1ccc2cc3cc(C(=O)NCc4cc(Br)ccc4OC)oc3nc2c1` was tested, and the “% Inhibition @ 10 uM” value was -1.54%.
`CCCN1CCN(C(=O)Cn2ncc3c4cc(C)ccc4nc-3c2O)CC1` was tested, and the “% Inhibition @ 10 uM” value was -1.61%.
In the case of `COc1ccc(NC(=O)C2CCC(C)(C(=O)O)C2(C)C)cc1` (stereo not drawn), the “% Inhibition @ 10 uM” value is reported as -5.51%.
With `COc1cc2nc(S)nc(NCCCN3CCOCC3)c2cc1OC` the “% Inhibition @ 10 uM” value was 2.39%.
For `O=C1C2C3C=CC(CO)(O3)C2C(=O)N1c1cccc(C(F)(F)F)c1` (stereo not drawn), the “% Inhibition @ 10 uM” value was -4.72%.
For `O=C(CCc1c[nH]c2ccccc12)NC1CC1`, the “% Inhibition @ 10 uM” value was -4.67%.
In the case of `COc1cccc2cccc(NC(C)=O)c12`, the “% Inhibition @ 10 uM” value is reported as -5.49%.
`O=C(Nc1ccc(F)cc1F)c1cccs1` was tested, and the “% Inhibition @ 10 uM” value was 2.13%.
With `CC(C)(C)c1ccc(C(=O)Nc2nonc2N)cc1` the “% Inhibition @ 10 uM” value was -0.403%.
With `O=C(COc1ccc2ccccc2c1)NCCC1=CCCCC1` the “% Inhibition @ 10 uM” value was 0.583%.
With `CC1CCCCN1CCCNC(=O)c1ccc2nc(N3CCOCC3)sc2c1` (stereo not drawn) the “% Inhibition @ 10 uM” value was -2.37%.
With `O=C(CCC1CCCC1)Nc1cccnc1Cl` the “% Inhibition @ 10 uM” value was -0.872%.
In the case of `Cc1nn(-c2ccccc2)c2sc(C(=O)NCc3ccccc3)cc12`, the “% Inhibition @ 10 uM” value is reported as 2.6%.
With `COc1ccc(C2C=C(c3cccc(Br)c3)Nc3nnnn32)c(OC)c1` (stereo not drawn) the “% Inhibition @ 10 uM” value was -7.08%.
`CCCCN(C)C(=O)Cn1ncc2c3ccccc3n(Cc3ccccc3)c2c1=O` was tested, and the “% Inhibition @ 10 uM” value was 3.4%.
For `CCc1ccc(-c2nc(SCC(=O)NCCOC)c(-c3ccc(OC)c(OC)c3)[nH]2)cc1`, the “% Inhibition @ 10 uM” value was -1.58%.
For `O=C(NCC1CCCO1)Nc1cnc2ccccn2c1=O` (stereo not drawn), the “% Inhibition @ 10 uM” value was 0.401%.
`COc1cccc(CN2CCN(c3ccccc3)CC2)c1` was tested, and the “% Inhibition @ 10 uM” value was -3.71%.
`Cc1ccc(C)c(OCC(=O)Nc2ccccn2)c1` was tested, and the “% Inhibition @ 10 uM” value was -2.76%.
With `CCN1CCC(N2CCCCC2C)CC1` (stereo not drawn) the “% Inhibition @ 10 uM” value was -5.44%.
`CC1CCc2cc(F)ccc2N1C(=O)COc1ccccc1` (stereo not drawn) was tested, and the “% Inhibition @ 10 uM” value was -1.49%.
With `COC(=O)c1cc(S(=O)(=O)NCC2CCN(CCc3cccs3)CC2)c[nH]1` the “% Inhibition @ 10 uM” value was 5.88%.
With `O=C1CC(c2ccccc2)NC(c2ccccc2)C1` (stereo not drawn) the “% Inhibition @ 10 uM” value was -5.5%.
With `COc1ccc(S(=O)(=O)N(C)CC(=O)Nc2cccc(C(F)(F)F)c2)cc1` the “% Inhibition @ 10 uM” value was 9.75%.
In the case of `Fc1ccc(-c2cn3c4ccccc4n(CCN4CCOCC4)c3n2)cc1`, the “% Inhibition @ 10 uM” value is reported as 2.14%.
`N=C1/C(=C/c2c[nH]c3ccccc23)C(=O)N=C2SC=C(c3ccccc3)N12` was tested, and the “% Inhibition @ 10 uM” value was -2.65%.
`CC1=C(C(=O)N2CCCCC2)C(c2cc(Br)ccc2F)C2=C(O)CCCC2=N1` (stereo not drawn) was tested, and the “% Inhibition @ 10 uM” value was 4.11%.
In the case of `Cc1nc2ccccc2cc1C(=O)NCc1cccnc1`, the “% Inhibition @ 10 uM” value is reported as 6.61%.
With `COc1cc(/C=c2\sc3nc(-c4cccc(C)c4)nn3c2=O)cc(OC)c1OC` the “% Inhibition @ 10 uM” value was 8.44%.
With `Cc1cccn2cc(-c3cccc(NC(=O)c4c(F)cccc4F)c3)nc12` the “% Inhibition @ 10 uM” value was -0.653%.
In the case of `O=C(O)c1cccc(NC(=O)c2ccccc2)c1`, the “% Inhibition @ 10 uM” value is reported as -1.45%.
For `Cc1ccc(S(=O)(=O)N(CC(=O)Nc2ccc(C(N)=O)cc2)C2CCCCC2)cc1`, the “% Inhibition @ 10 uM” value was 0.475%.
With `O=C(CCCCCN1C(=O)c2ccccc2C1=O)NCc1ccccc1` the “% Inhibition @ 10 uM” value was 0.317%.
With `CCc1ccc(CNCc2c(C(=O)O)[nH]c3cc(OC)ccc23)cc1` the “% Inhibition @ 10 uM” value was -0.397%.
In the case of `Cc1cc2nc3s/c(=C/c4ccc(F)cc4)c(=O)n3c2cc1C`, the “% Inhibition @ 10 uM” value is reported as -2.35%.
`COc1ccccc1CNC(=O)c1cccc(Br)c1` was tested, and the “% Inhibition @ 10 uM” value was -4.15%.
`COc1ccc(Cl)cc1N(CC(=O)Nc1ccc(C)c(C)c1)S(C)(=O)=O` was tested, and the “% Inhibition @ 10 uM” value was -0.185%.
In the case of `CCCNC(=O)C(C)N1Cc2ccccc2C1=O` (stereo not drawn), the “% Inhibition @ 10 uM” value is reported as 1.08%.
With `Cc1ccc(NC(=O)c2cccc(C)c2)nc1` the “% Inhibition @ 10 uM” value was -0.251%.
In the case of `COc1cc(/C=C2/NC(=O)NC2=O)c(Br)cc1OCc1ccccc1F`, the “% Inhibition @ 10 uM” value is reported as 3.29%.
`Cc1ccc(C(C)NC(=O)CC#N)cc1C` (stereo not drawn) was tested, and the “% Inhibition @ 10 uM” value was 4%.
With `COc1ccc(-c2nc(CS(=O)(=O)CC(=O)NCCCN3CCN(C)CC3)c(C)o2)cc1` the “% Inhibition @ 10 uM” value was -1.89%.
`CC1=C(c2nc(-c3ccccc3)no2)C(c2ccsc2)NC(S)=N1` (stereo not drawn) was tested, and the “% Inhibition @ 10 uM” value was -3.85%.
In the case of `CNC(=O)c1[nH]cnc1C(=O)Nc1ccccc1OC`, the “% Inhibition @ 10 uM” value is reported as 0.755%.
In the case of `COc1ccc2c(CNCC3CCCO3)c(C(=O)O)n(Cc3ccccc3C)c2c1` (stereo not drawn), the “% Inhibition @ 10 uM” value is reported as -4.37%.
For `OC1=C2C(=Nc3ccccc3NC2c2cccc(O)c2)CC(c2ccccc2)C1` (stereo not drawn), the “% Inhibition @ 10 uM” value was -3.26%.
For `O=C(Nc1ccc(Cl)cn1)C12CC3CC(CC(C3)C1)C2`, the “% Inhibition @ 10 uM” value was 4.1%.
With `CCCCOc1ccc(N2C(=O)CC(N3CCN(c4ccccn4)CC3)C2=O)cc1` (stereo not drawn) the “% Inhibition @ 10 uM” value was -9.4%.
In the case of `COc1ccccc1-c1cc(C(=O)N2CCc3ccccc3C2)no1`, the “% Inhibition @ 10 uM” value is reported as -1.28%.
